# Assay results from the supplement of paper PMC8728848.
# The other results are listed elsewhere or left out.
# B1: SJA (Sophora japonica) (protein)
# chain: FLGLFNSGGYSSSYQIVAVEFDTYINEWDPKTRHIGIDINSINSTKTVTWGWENGEVAIVLISYKAATETLTVSLTYPSSQTSYILSAAVDLKSILPEWVRIGF
# How the values were obtained:
# Test in all cases: glycan array binding signal (z-score within array); higher = stronger binding
# Details in all cases: glycan notation: IUPAC condensed, linker removed
# [1] = biological target: Kdn(a2-3)Gal(b1-3)GalNAc
# Procedure, shortened: (§1)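 The binding signal is a Z-score computed within each array. Data were drawn from 3228 arrays in the Consortium for Functional Glycomics database, restricted to those with a known protein sequence. Scores were averaged over arrays of the same protein sequence at different concentrations or buffers, and over linkers, and negative values can be taken as non-binding.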
# [2] = biological target: Kdn(a2-3)Gal(b1-3)GlcNAc
# Procedure, shortened: as §1
# [3] = biological target: Kdn(a2-3)Gal(b1-4)Glc
# Procedure, shortened: as §1
# [4] = biological target: Kdn(a2-3)Gal(b1-4)GlcNAc
# Procedure, shortened: as §1
# [5] = biological target: Kdn(a2-3)Gal(b1-4)[Fuc(a1-3)]GlcNAc
# Procedure, shortened: as §1
# [6] = biological target: Kdn(a2-6)Gal(b1-4)GlcNAc
# Procedure, shortened: as §1
# [7] = biological target: Man(a1-2)Man(a1-2)Man(a1-3)Man
# Procedure, shortened: as §1
# [8] = biological target: Man(a1-2)Man(a1-2)Man(a1-6)[Man(a1-3)]Man
# Procedure, shortened: as §1
# [9] = biological target: Man(a1-2)Man(a1-3)Man
# Procedure, shortened: as §1
# [10] = biological target: Man(a1-2)Man(a1-3)[Man(a1-2)Man(a1-6)]Man
# Procedure, shortened: as §1
# [11] = biological target: Man(a1-2)Man(a1-3)[Man(a1-2)Man(a1-6)]Man(a1-6)[Man(a1-2)Man(a1-2)Man(a1-3)]Man
# Procedure, shortened: as §1
# [12] = biological target: Man(a1-2)Man(a1-3)[Man(a1-2)Man(a1-6)]Man(a1-6)[Man(a1-2)Man(a1-2)Man(a1-3)]Man(b1-4)GlcNAc(b1-4)GlcNAc
# Procedure, shortened: as §1
# [13] = biological target: Man(a1-2)Man(a1-3)[Man(a1-6)]Man(a1-6)[Man(a1-2)Man(a1-3)]Man(b1-4)GlcNAc(b1-4)GlcNAc
# Procedure, shortened: as §1
# [14] = biological target: Man(a1-2)Man(a1-6)[Man(a1-3)]Man(a1-6)[Man(a1-2)Man(a1-2)Man(a1-3)]Man
# Procedure, shortened: as §1
# [15] = biological target: Man(a1-2)Man(a1-6)[Man(a1-3)]Man(a1-6)[Man(a1-2)Man(a1-2)Man(a1-3)]Man(b1-4)GlcNAc(b1-4)GlcNAc
# Procedure, shortened: as §1
# [16] = biological target: Man(a1-3)[Man(a1-6)]Man
# Procedure, shortened: as §1
# [17] = biological target: Man(a1-3)[Man(a1-6)]Man(a1-6)[Man(a1-2)Man(a1-3)]Man(b1-4)GlcNAc(b1-4)GlcNAc
# Procedure, shortened: as §1
# [18] = biological target: Man(a1-3)[Man(a1-6)]Man(a1-6)[Man(a1-3)]Man
# Procedure, shortened: as §1
# [19] = biological target: Man(a1-3)[Man(a1-6)]Man(a1-6)[Man(a1-3)]Man(b1-4)GlcNAc(b1-4)GlcNAc
# Procedure, shortened: as §1
# [20] = biological target: Man(a1-3)[Man(a1-6)]Man(b1-4)GlcNAc(b1-4)GlcNAc
# Procedure, shortened: as §1
# [21] = biological target: Man(a1-3)[Man(a1-6)]Man(b1-4)GlcNAc(b1-4)[Fuc(a1-6)]GlcNAc
# Procedure, shortened: as §1
# [22] = biological target: Man(a1-6)Man
# Procedure, shortened: as §1
# [23] = biological target: Man(b1-4)GlcNAc
# Procedure, shortened: as §1
# [24] = biological target: MurNAc(b1-4)GlcNAc
# Procedure, shortened: as §1
# [25] = biological target: Neu5Ac(a2-3)Gal
# Procedure, shortened: as §1
# [26] = biological target: Neu5Ac(a2-3)Gal(b1-3)GalNAc
# Procedure, shortened: as §1
# [27] = biological target: Neu5Ac(a2-3)Gal(b1-3)GalNAc(b1-3)Gal(a1-4)Gal(b1-4)Glc
# Procedure, shortened: as §1
# [28] = biological target: Neu5Ac(a2-3)Gal(b1-3)GalNAc(b1-3)Gal(b1-4)GlcNAc
# Procedure, shortened: as §1
# [29] = biological target: Neu5Ac(a2-3)Gal(b1-3)GalNAc(b1-4)[Neu5Ac(a2-3)]Gal(b1-4)Glc
# Procedure, shortened: as §1
# [30] = biological target: Neu5Ac(a2-3)Gal(b1-3)GalNAc(b1-4)[Neu5Ac(a2-8)Neu5Ac(a2-3)]Gal(b1-4)Glc
# Procedure, shortened: as §1
# [31] = biological target: Neu5Ac(a2-3)Gal(b1-3)GalNAc6S
# Procedure, shortened: as §1
# [32] = biological target: Neu5Ac(a2-3)Gal(b1-3)GlcNAc
# Procedure, shortened: as §1
# [33] = biological target: Neu5Ac(a2-3)Gal(b1-3)GlcNAc(b1-2)Man
# Procedure, shortened: as §1
# [34] = biological target: Neu5Ac(a2-3)Gal(b1-3)GlcNAc(b1-2)Man(a1-3)[GlcNAc(b1-4)][Neu5Ac(a2-3)Gal(b1-3)GlcNAc(b1-2)Man(a1-6)]Man(b1-4)GlcNAc(b1-4)GlcNAc
# Procedure, shortened: as §1
# [35] = biological target: Neu5Ac(a2-3)Gal(b1-3)GlcNAc(b1-2)Man(a1-3)[Neu5Ac(a2-3)Gal(b1-3)GlcNAc(b1-2)Man(a1-6)]Man(b1-4)GlcNAc(b1-4)GlcNAc
# Procedure, shortened: as §1
# [36] = biological target: Neu5Ac(a2-3)Gal(b1-3)GlcNAc(b1-3)Gal(b1-3)GlcNAc
# Procedure, shortened: as §1
# [37] = biological target: Neu5Ac(a2-3)Gal(b1-3)GlcNAc(b1-3)Gal(b1-4)GlcNAc
# Procedure, shortened: as §1
# [38] = biological target: Neu5Ac(a2-3)Gal(b1-3)GlcNAc(b1-3)GalNAc
# Procedure, shortened: as §1
# [39] = biological target: Neu5Ac(a2-3)Gal(b1-3)GlcNAc(b1-4)Gal(b1-4)Glc
# Procedure, shortened: as §1
# [40] = biological target: Neu5Ac(a2-3)Gal(b1-3)GlcNAc(b1-6)GalNAc
# Procedure, shortened: as §1
# [41] = biological target: Neu5Ac(a2-3)Gal(b1-3)GlcNAc6S
# Procedure, shortened: as §1
# [42] = biological target: Neu5Ac(a2-3)Gal(b1-3)[Fuc(a1-4)]GlcNAc
# Procedure, shortened: as §1
# [43] = biological target: Neu5Ac(a2-3)Gal(b1-3)[Fuc(a1-4)]GlcNAc(b1-3)Gal(b1-3)[Fuc(a1-4)]GlcNAc
# Procedure, shortened: as §1
# [44] = biological target: Neu5Ac(a2-3)Gal(b1-3)[Fuc(a1-4)]GlcNAc(b1-3)Gal(b1-4)[Fuc(a1-3)]GlcNAc
# Procedure, shortened: as §1
# [45] = biological target: Neu5Ac(a2-3)Gal(b1-3)[GlcNAc(b1-6)]GalNAc
# Procedure, shortened: as §1
binder,measurement,setting,value
B1,glycan array binding signal (z-score),[1],-0.152
same,glycan array binding signal (z-score),[2],-0.149
same,glycan array binding signal (z-score),[3],-0.037
same,glycan array binding signal (z-score),[4],-0.026
same,glycan array binding signal (z-score),[5],-0.238
same,glycan array binding signal (z-score),[6],-0.287
same,glycan array binding signal (z-score),[7],-0.266
same,glycan array binding signal (z-score),[8],-0.219
same,glycan array binding signal (z-score),[9],-0.181
same,glycan array binding signal (z-score),[10],-0.284
same,glycan array binding signal (z-score),[11],-0.102
same,glycan array binding signal (z-score),[12],0.2
same,glycan array binding signal (z-score),[13],-0.199
same,glycan array binding signal (z-score),[14],-0.138
same,glycan array binding signal (z-score),[15],-0.24
same,glycan array binding signal (z-score),[16],-0.091
same,glycan array binding signal (z-score),[17],0.451
same,glycan array binding signal (z-score),[18],-0.024
same,glycan array binding signal (z-score),[19],-0.212
same,glycan array binding signal (z-score),[20],0.001
same,glycan array binding signal (z-score),[21],-0.263
same,glycan array binding signal (z-score),[22],-0.068
same,glycan array binding signal (z-score),[23],-0.188
same,glycan array binding signal (z-score),[24],-0.252
same,glycan array binding signal (z-score),[25],-0.13
same,glycan array binding signal (z-score),[26],-0.245
same,glycan array binding signal (z-score),[27],0.481
same,glycan array binding signal (z-score),[28],-0.066
same,glycan array binding signal (z-score),[29],-0.065
same,glycan array binding signal (z-score),[30],-0.279
same,glycan array binding signal (z-score),[31],-0.268
same,glycan array binding signal (z-score),[32],-0.139
same,glycan array binding signal (z-score),[33],-0.114
same,glycan array binding signal (z-score),[34],-0.271
same,glycan array binding signal (z-score),[35],-0.041
same,glycan array binding signal (z-score),[36],-0.369
same,glycan array binding signal (z-score),[37],-0.131
same,glycan array binding signal (z-score),[38],-0.171
same,glycan array binding signal (z-score),[39],-0.315
same,glycan array binding signal (z-score),[40],-0.305
same,glycan array binding signal (z-score),[41],0.007
same,glycan array binding signal (z-score),[42],-0.315
same,glycan array binding signal (z-score),[43],0.035
same,glycan array binding signal (z-score),[44],-0.219
same,glycan array binding signal (z-score),[45],-0.156
